Reference: PMC4336329 (PLoS ONE, 2015)
About 14,000 (4.5%) of roughly 310,000 compounds showed an effect of 50% or more. Effects have a minus sign here. This is one part of the list.

Target: human ether-à-go-go-related gene (hERG) potassium channel (human, UniProt Q12809)
Test: primary screen, population patch clamp on CHO cells stably expressing hERG
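Also: peak tail current of the secondary pulse compared with the same well before compound.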

human ether-à-go-go-related gene (hERG) potassium channel, sequence (Q12809 whole entry, looked up): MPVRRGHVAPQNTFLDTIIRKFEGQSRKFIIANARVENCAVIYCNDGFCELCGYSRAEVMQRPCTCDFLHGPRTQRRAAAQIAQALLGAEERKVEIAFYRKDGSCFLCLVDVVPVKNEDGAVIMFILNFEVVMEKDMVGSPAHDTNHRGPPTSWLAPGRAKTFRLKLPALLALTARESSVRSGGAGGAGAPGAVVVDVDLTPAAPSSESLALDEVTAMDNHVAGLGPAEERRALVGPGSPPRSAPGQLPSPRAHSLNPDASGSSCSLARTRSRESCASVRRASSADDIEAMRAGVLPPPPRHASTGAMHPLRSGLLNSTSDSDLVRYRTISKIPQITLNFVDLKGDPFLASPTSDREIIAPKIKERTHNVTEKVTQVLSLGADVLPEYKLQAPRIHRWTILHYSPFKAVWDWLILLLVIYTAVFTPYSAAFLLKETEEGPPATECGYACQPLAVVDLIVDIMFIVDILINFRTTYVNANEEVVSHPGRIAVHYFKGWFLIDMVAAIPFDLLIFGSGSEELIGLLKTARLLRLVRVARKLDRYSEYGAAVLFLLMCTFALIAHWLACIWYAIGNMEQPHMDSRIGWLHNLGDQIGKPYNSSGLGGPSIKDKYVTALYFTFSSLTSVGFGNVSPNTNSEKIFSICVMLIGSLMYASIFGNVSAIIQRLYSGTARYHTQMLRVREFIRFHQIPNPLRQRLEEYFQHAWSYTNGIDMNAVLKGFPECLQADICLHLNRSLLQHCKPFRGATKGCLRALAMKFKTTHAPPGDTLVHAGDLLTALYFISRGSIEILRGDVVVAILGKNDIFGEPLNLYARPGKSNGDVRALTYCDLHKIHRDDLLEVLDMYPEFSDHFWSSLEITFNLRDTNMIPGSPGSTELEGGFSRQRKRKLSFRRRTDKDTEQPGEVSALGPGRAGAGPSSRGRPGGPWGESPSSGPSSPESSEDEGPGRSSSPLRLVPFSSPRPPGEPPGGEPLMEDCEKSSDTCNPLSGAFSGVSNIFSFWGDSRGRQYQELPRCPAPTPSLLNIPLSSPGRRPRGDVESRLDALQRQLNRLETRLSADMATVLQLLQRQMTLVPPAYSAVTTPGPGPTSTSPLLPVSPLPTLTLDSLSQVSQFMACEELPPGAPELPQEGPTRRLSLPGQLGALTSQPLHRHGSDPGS

| SMILES | hERG current change (%, negative = inhibition) at 10uM [%] |
| --- | --- |
| CC(C)c1ccc(C(O)c2nc3ccccc3n2C)cc1 (centres unmarked) | 6.95 |
| Cc1cc(C(=O)N/N=C/c2cccc(OC(=O)c3ccco3)c2)n[nH]1 | 4.6 |
| CC(=O)N1CCN(CCN=CC2=C(O)CC(c3cccs3)CC2=O)CC1 (centres unmarked) | 8.53 |
| Cc1oc(-c2ccc(Cl)cc2)nc1CN1CCC(C(=O)NCCCN2CCOCC2)CC1 | -26.5 |
| CSC(SC)=C(C(C)=O)C(=O)c1ccc(C)cc1 | 1.92 |
| COc1ccc(NC(=O)CCNC(=O)c2ccco2)c(OC)c1 | 5.35 |
| CC(=O)N1Cc2ccccc2CC1C(=O)N1CCN(c2ccccc2)CC1 (centres unmarked) | -6.91 |
| CC(C)CCC(O)(c1ccccc1)C(CN1CCOCC1)c1ccccc1.Cl (centres unmarked) | -1.36 |
| Cc1cc(-c2ccccc2)cc(-c2ccccc2)[n+]1CCc1ccccc1.[O-][Cl+3]([O-])([O-])[O-] | -76.5 |
| CCN(CC(=O)NCc1cccs1)C(=O)c1ccc(S(=O)(=O)Nc2ccccc2Cl)cc1 | -26.8 |
| Nc1c(Cl)cc(C(=O)c2c3ccccc3[n+]([O-])n2CCC[NH3+])cc1Cl.[Cl-] | -20.9 |
| CCCCC(CC)CNC(=O)C1CCCN(S(=O)(=O)c2cnc[nH]2)C1 (centres unmarked) | 3.45 |
| CC(=O)C(C(C)=O)C1(O)C(=O)c2ccccc2C1=O | 11.8 |
| COc1ccccc1NC(=O)C[n+]1ccccc1C.[Cl-] | 15.3 |
| CC(=O)c1ccc(N2CCC(c3cc(-c4ccc(Cl)cc4)n[nH]3)CC2)c([N+](=O)[O-])c1 | -20.4 |
| O=C(CSc1nc2ncccc2[nH]1)NCCc1ccccc1 | 2.3 |
| Cc1ccccc1C(=O)NCCOc1ccccc1Cl | 5.9 |
| CCNC(=O)CN(c1ccc(Cl)cc1)S(=O)(=O)c1ccccc1 | -14.4 |
| Cn1ccc(NC(=O)Nc2ccc(Cl)cc2Cl)n1 | 0.0608 |

| SMILES | hERG current change (%, negative = inhibition) at 10uM [%] |
| --- | --- |
| O=C(CSc1nnc(-c2cccnc2)n1Cc1ccco1)NCc1ccc2c(c1)OCO2 | -33.2 |
| COc1ccc(CNC(=S)Nc2cccc(OC)c2)cc1 | -15.5 |
| CCOC(CNC(=O)c1cc2c(=O)n(CC)c3ccccc3c2s1)OCC | 12.7 |
| CC(C)CN(c1ccccc1)S(=O)(=O)c1nnc(NC(=O)C(C)C)s1 | 8.25 |
| OCCNc1nc2ccccc2nc1NCCO | 18.4 |
| Cc1ccc(CNC(=O)C(=O)NCCCn2ccnc2)cc1 | 4.1 |
| CC(C)n1nc(C(=O)NCc2ccc3c(c2)OCO3)c2ccccc2c1=O | -11 |
| CSCCC(NC(=O)c1ccco1)C(=O)NCC1CCCO1 (centres unmarked) | 9.8 |
| CCN1CCN(c2ccc(S(=O)(=O)N3CCCCC3)cc2NC(=O)CC(NC(C)=O)c2ccccc2)CC1 (centres unmarked) | 23.6 |
| O=C(c1cc([N+](=O)[O-])ccc1Cl)N1c2ccccc2Sc2ccccc21 | 5.91 |
| Cc1ccc(NS(=O)(=O)c2ccc(C(=O)NCCCN3CCCC3=O)cc2)cc1 | 11.2 |
| COc1ccc(C(=O)Nc2cccnc2)cc1S(=O)(=O)N1CCOCC1 | -2.77 |
| Cc1ccc(CNC(=O)CNC(=O)c2ccco2)cc1 | 22.7 |
| Nn1c(Cc2ccccc2F)nnc1SCC(=O)N1CC(=O)Nc2ccccc21 | 8.77 |
| CC(=O)Nc1ccc(S(=O)(=O)N2C3CCCC2CC(NC(=O)C2CCCCC2)C3)cc1 (centres unmarked) | 6.78 |
| CSc1nc(-c2ccccc2)nn1C(=O)c1ccc(Cl)cc1 | 5.32 |
| COc1cc2ncnc(NCc3ccccc3C)c2cc1OC | -7.36 |
| CCCCNC(=O)CSc1nc(N)c(C(=O)Nc2ccc(OC)cc2)s1 | -11.3 |
| CC[n+]1cccc(-c2nc3ccccc3s2)c1.[I-] | -0.683 |

| SMILES | hERG current change (%, negative = inhibition) at 10uM [%] |
| --- | --- |
| COc1cc(C)c(Cl)cc1S(=O)(=O)N(C)C | 1.59 |
| Cc1ccc(N2C(=O)C3C(C2=O)C2C=CC3C23CC3)cc1 (centres unmarked) | -5.56 |
| COc1ccc(/C=C(/NC(=O)c2ccc(Br)cc2)C(=O)N2CCOCC2)cc1 | 5.5 |
| C=C1CCN([C@@H](C)C(=O)NCc2ccc(OC)cc2)S(=O)(=O)c2ccccc21 | -6.66 |
| O=C1CCC/C(=N/NC(=O)c2ccc(NS(=O)(=O)c3cccs3)cc2)C1 | 12.9 |
| O=[N+]([O-])c1cccc(/C=C/c2nc3ccc([N+](=O)[O-])cc3[nH]2)c1 | -10.1 |
| O=C1c2ccccc2C(O)N1Cc1ccco1 (centres unmarked) | 10.1 |
| CC(CNCC1CCCO1)COc1ccccc1.O=C(O)C(=O)O (centres unmarked) | 16.3 |
| CCC(=O)NC(=S)NNC(=O)c1ccc(NC(=O)c2ccccc2)cc1 | -2.15 |
| CCC(C(=O)Nc1c[nH]c(=O)[nH]c1=O)c1ccccc1 (centres unmarked) | 16.1 |
| Cc1noc(C)c1C(=O)N1CCN(S(=O)(=O)c2cccc(Cl)c2Cl)CC1 | -9.11 |
| COc1ccc(C)cc1NC(=O)CSc1nc2scc(C)c2c(=O)[nH]1 | 14.8 |
| CC1(C)CC(C(CC(=O)N2CCCC2)Cc2ccccc2)CCO1 (centres unmarked) | -12.8 |
| CC(C)(C)C(=O)Nc1ncccc1C(O)c1cccc(C(F)(F)F)c1 (centres unmarked) | 13.9 |
| COc1cccc(OC)c1C(=O)NC(=S)Nc1ccc2c(c1)Cc1ccccc1-2 | 2.49 |
| CCCCn1c(N)c(N(CCOC)C(=O)c2ccc(Cl)c(S(=O)(=O)N3CCCCC3)c2)c(=O)[nH]c1=O | 11.8 |
| CCCCCn1c(=O)[nH]c2cc(C(=O)NCCN3CCCCC3C)ccc2c1=O (centres unmarked) | -15.9 |
| CS(=O)(=O)c1sc2nc(-c3ccccc3)cc(-c3ccccc3)c2c1N | 9.12 |
